Experimental findings from PubChem BioAssay AID1645887 (National Center for Advancing Translational Sciences (NCATS), 2021) are described below.

Several values for one entry are separate records, joined by “and”; a condition that tells them apart may be missing. Equal entries are not always repeated. In all, about 16,000 compounds went through this assay and about 40 (0.2%) were called active. Another 1% or so got no clear call; they are omitted. Calls follow the shape of the dose curve; as a rule, active = well fitted activation curve with a large enough effect; inconclusive = small, poorly fitted or top-dose-only effect, or another doubt; inactive = no such curve, though single readings can be large or run the other way. This is one part of the list.
% is scaled to controls: 0 for no effect and ±100 for the full control effect.

Sequence of UniProt Q8WZA2 (Q8WZA2 whole entry, looked up): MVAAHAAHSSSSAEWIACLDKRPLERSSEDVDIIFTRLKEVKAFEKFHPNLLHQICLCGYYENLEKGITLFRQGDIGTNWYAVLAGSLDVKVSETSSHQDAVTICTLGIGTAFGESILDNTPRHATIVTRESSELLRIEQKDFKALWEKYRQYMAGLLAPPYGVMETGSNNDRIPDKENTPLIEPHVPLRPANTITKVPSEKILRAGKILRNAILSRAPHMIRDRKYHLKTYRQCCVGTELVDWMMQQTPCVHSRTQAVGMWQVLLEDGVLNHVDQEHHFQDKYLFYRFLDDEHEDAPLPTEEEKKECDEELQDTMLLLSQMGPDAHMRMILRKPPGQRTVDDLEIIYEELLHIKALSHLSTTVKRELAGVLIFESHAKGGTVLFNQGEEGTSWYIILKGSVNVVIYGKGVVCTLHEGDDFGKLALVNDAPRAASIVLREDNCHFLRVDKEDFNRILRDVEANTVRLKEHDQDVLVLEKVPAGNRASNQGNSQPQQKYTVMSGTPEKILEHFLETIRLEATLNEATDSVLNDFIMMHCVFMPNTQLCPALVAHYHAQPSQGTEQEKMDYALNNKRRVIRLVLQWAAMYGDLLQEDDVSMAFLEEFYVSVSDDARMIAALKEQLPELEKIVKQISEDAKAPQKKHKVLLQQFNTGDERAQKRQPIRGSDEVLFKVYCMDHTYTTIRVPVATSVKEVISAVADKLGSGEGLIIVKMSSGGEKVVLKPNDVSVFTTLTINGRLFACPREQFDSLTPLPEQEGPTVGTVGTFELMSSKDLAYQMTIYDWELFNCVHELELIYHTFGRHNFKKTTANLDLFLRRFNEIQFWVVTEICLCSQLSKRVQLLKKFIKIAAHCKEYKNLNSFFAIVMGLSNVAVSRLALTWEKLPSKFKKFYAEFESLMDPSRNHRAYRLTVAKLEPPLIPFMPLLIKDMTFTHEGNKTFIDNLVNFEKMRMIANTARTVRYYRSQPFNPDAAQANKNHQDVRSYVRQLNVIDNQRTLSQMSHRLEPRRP

This assay has as its target Rap guanine nucleotide exchange factor 4 (Homo sapiens) (UniProt Q8WZA2). Put plainly: Validation qHTS for agonist of cAMP-regulated guanine nucleotide exchange factor 4 (EPAC2).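 Also: exchange makes BODIPY-GDP fluorescence drop when released from Rap1B; series mostly up to about 150 µM.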 As to conditions: EPAC2 Rap1B BODIPY-GDP exchange, fluorescence; activation: stronger effect = higher value. Summed up:
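Fluorescent exchange assay: 100 nM EPAC2 with 250 nM RAP1B-BODIPY-GDP and 50 uM GDP; compound added, 5 min at room temperature, then read (ex 480/em 540 nm) every 5 min for 30 min. Normalized to 6.5 mM cAMP agonist control.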
As for `O=C(NCC1Cc2cc(-c3cncnc3)cc(Cl)c2O1)c1cccc(Cn2cccn2)c1` (centres undefined), the activation was inactive: 6.87%.
The value for `CC(=O)N1CCC2(CC1)CCN(c1ccccn1)CC2` was inactive: -3.72%.
For `Cc1ccc(CN2CCOCCS2(=O)=O)cc1` the value was inactive: -14.2%; for `COc1ccccc1CNCCCCCCNCCCCCCCCNCCCCCCNCc1ccccc1OC`, inactive: -0.961% and inactive: 0.869%.
As for `CCCCCCC[n+]1ccc(C)c2ccccc21`, the activation was inactive: -23.7%.
For `CN[C@@H]1CCc2[nH]c3ccc(C(N)=O)cc3c2C1` the value was inactive: -5.67%; for `CC1/C=C/C=C/C=C/C=C/C=C/C=C/C=C/C(OC2OC(C)C(O)C(N)C2O)CC2O[C@@](O)(CC(O)CC(O)C(O)CCC(O)CC(O)CC(=O)OC(C)[C@H](C)C1O)CC(O)C2C(=O)O` (some centres undefined), inactive: -10.9%; for `CC(=O)Nc1ccc(SC[C@H](Cc2ccccc2)N2CC[C@@H](C)CCC2=O)cc1`, inactive: -19.1%.
For `O=C(Nc1ccccc1)N1CC[C@@]2(CCCN(C(=O)c3ccco3)C2)C1` the value was inactive: 2.11%; for `CC(C)CN1CCC2(CC1)CCN(C(=O)c1cc(C(F)(F)F)cc(C(F)(F)F)c1)CC2`, inactive: -16.3%; for `COc1ccc(Oc2ncc3ncc(=O)n(C[C@H]4CCCO4)c3n2)cc1`, inactive: -9.53%.
`COc1ccc2c(c1)CCc1cnc(-n3ncc(C(=O)NCCCN4CCOCC4)c3C)nc1-2`: the activation is inactive: -14.6%.
For `COc1cccc(N2[C@@H](CC(=O)O)c3ccc(/C=C/C(=O)O)cc3S2(=O)=O)c1` the value was inactive: -4.78%; for `CCC1(C2CCN(Cc3ccc(C)s3)CC2)NC(=O)N(CC2COc3ccccc3O2)C1=O` (centres undefined), inactive: -26.4%.
For `Nc1nc2ncc(=O)[nH]c2c(=O)[nH]1` the value was inactive: -3.53%.
For `Cc1ccccc1C1(CC(=O)N2CCN(C)CC2)CC(=O)N(Cc2ccncc2)C1=O` (centres undefined) the value was inactive: -24.4%; for `Oc1cccc(O)c1O`, inactive: -18.8%.
For the molecule `COC1=CC(=O)C[C@@H](C)[C@]12Oc1c(Cl)c(OC)cc(OC)c1C2=O`, the activation is inactive: -9.49% and inactive: 4.92%.
For `COc1ccc(/C=C/c2cc(OC)c(OC)cc2CC[N+](C)(C)C)cc1` the value was inactive: -19.4%; for `Cn1cc(-c2nc3cnc(N4CCOCC4)nc3n(CCC#N)c2=O)c2ccccc21`, inactive: -13.1%; for `N#Cc1ccccc1OC[C@H](O)CNCCNC(=O)Nc1ccccc1`, inactive: -18.4%.
As for `COc1cccc(-n2c(SC)nnc2C2CCN(CCC(C)c3ccc(C)o3)CC2)c1` (centres undefined), the activation was inactive: -10.5%.
The value for `C=CCN1CC[C@@H](O)C(=C)S1(=O)=O` was inactive: -18.7%.
The value for `COc1cc(=O)n(C)c2c(OCC(O)C(C)(C)O)cccc12` (centres undefined) was inactive: -12.5%; that for `COc1ccc(CNc2ncncc2-c2c(C)noc2C)c(OC)c1` was inactive: 1.12%; that for `Cc1ccc2nc(SCC(=O)NCC3Cc4cccc(-c5nc(C)cnc5C)c4O3)[nH]c2c1` (centres undefined) was inactive: 2.47%.
For `COc1c2c(cc3occ(-c4ccc5c(c4)OCO5)c(=O)c13)OC(C)(C)C=C2`, the activation is inactive: -2.34%.
For `CC(C)(C)c1cc(/C=C(\C#N)C(N)=S)cc(C(C)(C)C)c1O` the value was inactive: 15.4% and inactive: 14.5% and inactive: -44.4%; for `COc1ccc(C(=O)NCCc2nnc3n2CCN(CC2CC=CCC2)CC3)cc1` (centres undefined), inactive: -5.39%.
Regarding `COc1ccc(SC[C@H](C)CN2CC[C@H](C(C)(C)C)CCC2=O)cc1`, the activation is inactive: -53.1%.
For `Cc1cnc(CNc2cc(-c3ccccc3C(F)(F)F)ncn2)cn1` the value was inactive: -12.1%; for `Cc1ncc2c(c1CNC(=O)c1cncs1)CCN(C(=O)c1ccsc1)C2`, inactive: -6.32%; for `C=C1C2=CC(=O)OC(c3ccoc3)[C@]2(C)CCC1[C@]1(C)C=CC(=O)C(C)(C)C1CC(=O)OC` (some centres undefined), inactive: -38.4%.
With `COc1c(C2=CC(=O)N(C)C2=O)c2c(n1C)C(=O)c1ccccc1C2=O`, the activation is inactive: -11.5%.
Regarding `COc1ccc(-c2coc3cc(O)cc(O)c3c2=O)cc1`, the activation is inactive: -21.6% and inactive: -19.2%.
With `Cn1cc(-c2nc3cnc(OCc4ccccc4)nc3n(CCC#N)c2=O)c2ccccc21`, the activation was inactive: 1.5%.
As to `CCCCC1=NC2(CCCC2)C(=O)N1Cc1ccc(-c2ccccc2-c2nn[nH]n2)cc1`, the activation was inactive: -12.8%.
The value for `Cc1cnc(CNc2nc(-c3cccc(NS(C)(=O)=O)c3)nc3ccccc23)cn1` was inactive: -10.5%; that for `OCC1OC(n2cnc3c(=S)nc[nH]c32)C(O)C1O` (centres undefined) was inactive: -5.59%; that for `Nc1nc2c(nc(Sc3ccc(Cl)cc3)n2C2OC(CO)C(O)C2O)c(=O)[nH]1` (centres undefined) was inactive: 0.176%.
The value for `C[C@H](NC(=O)/C(C#N)=C/c1ccc(O)c(O)c1)c1ccccc1` was inactive: -24.8% and inactive: -59.2%.
As for `O=S(=O)(NCCNC/C=C/c1ccc(Br)cc1)c1cccc2cnccc12`, the activation was inactive: 2.57% and inactive: 0.593%.
`C[S+](CC[C@H](N)C(=O)O)C[C@H]1O[C@@H](n2cnc3c(N)ncnc32)[C@H](O)[C@@H]1O` (some centres undefined): the activation was inactive: 2.15% and inactive: -16.9%.
The value for `COCCNc1ncncc1-c1ccccc1OC` was inactive: 0.0196%.
For `OCC(O)CN1CCN(c2ccccc2)CC1` (centres undefined) the value was inactive: -6.04%.
For the molecule `COc1cccc2c3c(c(C)nc12)CC(CO)O3` (centres undefined), the activation is inactive: -2.38%.
The value for `N#Cc1cccc(-c2cncnc2-n2ccnc2)c1` was inactive: 0.245%.
The value for `Cc1cc(C(=O)Nc2ccccc2-c2nc(CNC(=O)c3sc(C)nc3C)c(C)o2)c(C)o1` was inactive: -6.12%; that for `COCCn1c(=O)c(CCc2ccccc2)nc2cnc(OC)nc21` was inactive: -5.77%.
`O=c1c(-c2cccs2)nc2cnc(N3CCOCC3)nc2n1Cc1cccs1`: the activation is inactive: -2.33%.
For `CN(Cc1ccco1)c1cc(-c2cccnc2)ncn1` the value was inactive: -2.39%; for `CN1Cc2sccc2C(c2ccc(O)c(O)c2)C1` (centres undefined), inactive: -11.1%; for `COc1cc2c(cc1OC)C(=O)OC2`, inactive: -5.42%.
Turning to `CN1CCN(c2ncc3nc(-c4cccc(C#N)c4)c(=O)n(CCc4ccccc4)c3n2)CC1`, the activation was inactive: 1.3%.
